# Assay results reported in article PMC6919601, “Identification of Plasmodium dipeptidyl aminopeptidase allosteric inhibitors by high throughput screening” (PLoS ONE, 2019).
# Out of some 110,000 compounds screened, about 230 (0.21%) showed an effect of 50% or more. This is one part of the list.
# Target: DPAP1 (Plasmodium falciparum, UniProt Q8IIJ9)
# Test: primary screen, percent inhibition; read by cleavage of a fluorogenic dipeptide substrate; higher = more effect of the substance
# Design: species or system P. falciparum D10 trophozoite lysates; single well
# 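Note: 30 min substrate incubation versus DMSO and 10 µM JCP410 controls.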
# Sequence of DPAP1 (Q8IIJ9 whole entry, looked up): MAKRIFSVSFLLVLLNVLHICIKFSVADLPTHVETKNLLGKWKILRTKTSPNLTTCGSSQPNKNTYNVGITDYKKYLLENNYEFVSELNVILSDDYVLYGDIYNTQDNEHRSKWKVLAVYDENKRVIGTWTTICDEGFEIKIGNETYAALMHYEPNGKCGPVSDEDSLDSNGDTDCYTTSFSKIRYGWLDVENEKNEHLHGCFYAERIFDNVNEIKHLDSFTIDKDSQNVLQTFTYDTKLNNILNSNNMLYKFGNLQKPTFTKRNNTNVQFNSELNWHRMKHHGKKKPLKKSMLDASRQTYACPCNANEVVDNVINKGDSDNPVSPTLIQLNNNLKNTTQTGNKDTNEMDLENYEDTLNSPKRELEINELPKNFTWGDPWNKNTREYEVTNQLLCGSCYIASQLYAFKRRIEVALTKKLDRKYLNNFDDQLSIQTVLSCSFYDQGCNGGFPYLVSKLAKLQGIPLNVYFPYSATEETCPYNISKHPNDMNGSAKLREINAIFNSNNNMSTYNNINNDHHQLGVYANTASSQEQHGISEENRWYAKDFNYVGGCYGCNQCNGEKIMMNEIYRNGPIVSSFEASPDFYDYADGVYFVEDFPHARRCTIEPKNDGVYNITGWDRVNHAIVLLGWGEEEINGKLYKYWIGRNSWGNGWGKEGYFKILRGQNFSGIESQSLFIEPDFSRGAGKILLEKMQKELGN
row,Structure (SMILES),% Inhibition @ 10 uM
1,COc1ccc(S(=O)(=O)NCCN2CCOCC2)cc1-c1nnc2c3ccccc3c(C)nn12,0.628%
2,O=C(NCc1cccs1)C(NS(=O)(=O)c1cccc2nsnc12)c1ccccc1 (stereo not shown),3.63%
3,OCCN(CCO)Cc1ccc(Cl)cc1,-1.56%
4,COc1ccccc1NC(=O)c1ccccc1NC(=O)c1cc(Cl)ccc1NC(=O)c1ccco1,-3.1%
5,c1ccc2c(c1)CC(NCCc1c[nH]cn1)C2,-3.6%
6,CCOc1ccc(NC(=O)C2CC(=O)N(C)/C(=N/c3ccc(F)cc3)S2)cc1 (stereo not shown),0.873%
7,O=C(Cn1c2c(c(-c3ccccc3Cl)cc1=O)CCC2)N1CCC2(CC1)OCCO2,-0.971%
8,O=C(Cc1ccccc1)N1CCCCCC1,0.605%
9,CC1CCCC(C)N1C(=O)Cn1cc(C(=O)c2ccccc2)c2ccccc21 (stereo not shown),3.25%
10,COC(=O)c1cccnc1-n1c(=O)c2cccnc2n(Cc2ccccc2Cl)c1=O,5.33%
11,O=C(Nc1ccc(S(=O)(=O)N2CCCC2)cc1)C12CC3CC(C1)CC(n1cncn1)(C3)C2,1.34%
12,C=CCN1C(=O)/C(=C/c2ccc(OC)cc2OC)C(=O)NC1=S,5.29%
13,Cc1nn(CCC(=O)NCCc2ccc(Cl)cc2)c(=O)c2nn(-c3ccccc3)c(C)c12,-5.94%
14,Cc1cc(C)c(Cn2c3ccccc3c3cnn(CC(=O)NCCN4CCOCC4)c(=O)c32)c(C)c1,-5.19%
15,CCOc1ccc(-c2cc(NC(=O)c3ccncc3)c(C(=O)OC)s2)cc1,-0.447%
16,CC(C)CSc1nc2c(c(=O)[nH]c(=O)n2C)n1CC(O)COc1ccc(Cl)cc1 (stereo not shown),0.562%
17,COc1ccc(C2C(C#N)=C(N)OC3=C2C(=O)CC(C)(C)C3)cc1COc1ccccc1Cl (stereo not shown),3.05%
18,Cc1ccc(CNC(=O)C(C)Sc2nc3nc(C)cc(C)n3n2)cc1 (stereo not shown),-4.06%
19,COc1ccc(CCNc2cc(C)c(C#N)c3nc4ccccc4n23)cc1OC,7.08%
20,CN(C)Cc1ccccc1Sc1ccc(O)cc1O,-14.4%
21,COc1ccc(Cl)cc1/N=C/C1=C(O)CC(c2ccccc2)CC1=O (stereo not shown),-3.16%
22,Cc1cc(C)cc(NC(=O)c2ccc(Br)cc2)c1,0.247%
23,O=[N+]([O-])c1cc(C(F)(F)F)ccc1SCCO,-8.76%
24,Cc1noc2ncnc(N3CCN(c4ncccn4)CC3)c12,1.57%
25,CCOC(=O)N1CCC(NC(=O)c2oc3c(c2C)-c2n[nH]cc2CC3)CC1,-4.68%

row,Structure (SMILES),% Inhibition @ 10 uM
1,O=C1N/C(=C\c2cccc(C(F)(F)F)c2)C(=O)N1Cc1ccc(Cl)cc1,2.17%
2,CCOc1ccccc1-n1nnc(C(N)=O)c1C,6.38%
3,CC1=NN(C(=O)c2ccc(O)cc2)C(O)(c2ccc(Cl)cc2)C1 (stereo not shown),-0.511%
4,Cc1ccc(-n2nc3c(N4CCC(C(=O)O)CC4)nnc(C)c3c2C)cc1,1.43%
5,N#C/C(=C\c1cccs1)C(=O)Nc1ncc(Cc2cccc(Cl)c2)s1,0.611%
6,O=C(CC1CC2CCC1C2)Nc1nc2ccc(Br)cc2s1 (stereo not shown),-1.46%
7,Cc1cccc(C(=O)NC2(C(F)(F)F)N=C(SCc3ccccc3)NC2=O)c1 (stereo not shown),0.032%
8,COc1cc(NC(=O)c2ccccc2OC)c(OC)cc1Cl,2.65%
9,CS(=O)(=O)N(CC(=O)NC1CCCCC1)c1ccc2c3c(cccc13)CC2,-9.66%
10,COc1ccc(C2=N/C(=C\C(Br)=C\c3ccccc3)C(=O)O2)cc1OC,1.25%
11,CCc1ccc(-n2nc(C)c3c(C)cc(=O)n(CC(=O)NCc4ccccc4)c32)cc1,5.78%
12,O=C1CSc2nnc(-c3cccc(Cl)c3)n2N1,-0.45%
13,COc1cccc2sc(N(CCCN(C)C)C(=O)c3nc4ccccc4s3)nc12,-2.41%
14,COC(=O)c1sccc1NC(=O)c1nc(-c2ccc(Cl)cc2)n2c1CCCCC2,6.77%
15,CC(CCO)Nc1nc2c(c(=O)n(C)c(=O)n2C)n1Cc1cccc(Br)c1 (stereo not shown),-0.339%
16,O=c1c2c([nH]c(=S)n1C1CCCC1)-c1ccccc1CC21CCCC1,-0.436%
17,CCO/C(O)=C1\C(C)=NC2=C(C(=O)CCC2)C1c1cc(Cn2cnc3ccccc32)cs1 (stereo not shown),-1.05%
18,O=C(NCc1ccccc1)c1cc2n(n1)C(C(F)(F)F)CC(c1ccc3c(c1)OCO3)N2 (stereo not shown),0.111%
19,CC(C)NC(=O)C1CCN(S(=O)(=O)c2ccc(Cl)cc2)CC1,4.74%
20,O=C(O)Cc1ccc(NC(=O)c2ccc(Cl)c(Cl)c2)cc1,4.75%
21,COc1ccc(C)cc1NC(=O)c1cnn2c(C(F)F)cc(-c3ccccc3)nc12,2.21%
22,O=C(c1ccc(F)cc1)c1coc2ccccc2c1=O,-5.14%
23,Cc1ccc(CNC(=O)Cn2ncn3nc(-c4cccs4)cc3c2=O)cc1,-2.85%
24,COc1ccc(-c2nn(C)c3sc(C(=O)N4CCCCCC4)cc23)cc1OC,4.51%
25,Cc1cc(C(=O)N(C)Cc2ccccc2)n[nH]1,1.76%

row,Structure (SMILES),% Inhibition @ 10 uM
1,Cc1cc(/C=C2/SC(=O)N(C)C2=O)c(C)n1-c1ccc(Br)cc1,-0.995%
2,Cc1cc(C)cc(NS(=O)(=O)c2ccc(NC(=O)Cc3ccccc3)cc2)c1,-0.173%
3,Cn1cc(CCCC(=O)NCc2ccc3c(c2)OCO3)c2ccccc21,3.66%
4,COc1ccc(C2C(C(=O)c3ccc(OC(C)C)cc3)=C(O)C(=O)N2c2ccccn2)cc1 (stereo not shown),-5.71%
5,Cc1cc(NC(=O)c2ccc(NC(=O)C(C)C)cc2)no1,-2.12%
6,O=C1c2cccnc2C(=O)N1Cc1ccc(F)cc1S(=O)(=O)NCc1ccc2c(c1)OCO2,-7.09%
7,COc1ccc2oc(=O)cc(CN(CCCOC(C)C)Cc3ccco3)c2c1,1.67%
8,Cc1ccccc1-c1noc(N)c1C#N,-1.08%
9,COC(=O)c1[nH]c2ccc(F)cc2c1NS(=O)(=O)c1ccc2nc(O)sc2c1,0.776%
10,O=C(NC1CCN(c2ncccn2)CC1)C1CCN(c2cnccn2)CC1,6.89%
11,COc1cc(OC)c(OC)cc1CNCCNC(=O)c1nonc1N,0.00706%
12,CC1(C)CC(O)=C(C(NC(=O)c2cccnc2)(C(F)(F)F)C(F)(F)F)/C(=N/Cc2ccccc2)C1,-4.35%
13,Cc1ccc(S(=O)(=O)NC(=O)Nc2ccc(Cl)c(C(F)(F)F)c2)cc1,-1.06%
14,Cc1cccc(C2=N/C(=C\c3cc4c(cc3Cl)OCO4)C(=O)O2)c1,1.25%
15,O=C(NC(Cc1ccccc1)C(=O)O)/C(=C/c1ccc(Cl)cc1)NC(=O)c1ccco1 (stereo not shown),7.1%
16,N#CC1=C(N)Oc2[nH]nc(-c3ccc(Cl)cc3)c2C1CCc1ccccc1 (stereo not shown),6.58%
17,CCN(CC)C1CC(=O)N(c2c(C)cccc2C)C1=O (stereo not shown),-15.4%
18,COc1ccc(OC)c(N(CC(=O)NC2CCCC2)S(C)(=O)=O)c1,-5.4%
19,CCc1ccc(S(=O)(=O)c2nnn3c2nc(NC2CC2)c2cc(Cl)ccc23)cc1,7.82%
20,CC(C)CCNC(=O)c1ccc2nc(N3CCOCC3)sc2c1,-2.37%
21,CC1CCN(S(=O)(=O)c2ccc(NC(=O)c3cccs3)cc2)CC1,-5.96%
22,CC1=CC2=NC(=O)/C(=C\c3cc(C)n(-c4cc(C)cc(C)c4)c3C)C(=N)N2O1,-1.43%
23,COc1ccccc1CNC(=O)[C@H](CCSC)N1Cc2ccccc2C1=O,2.93%
24,COc1ccc(NC(=O)COc2ccc([N+](=O)[O-])cc2)cc1,-2.62%
25,N#CC1=C(SCc2ccccc2)SCNC1=O,-3.53%

row,Structure (SMILES),% Inhibition @ 10 uM
1,O=C(O)C1CCCCC1C(=O)Nc1cccc(C(F)(F)F)c1 (stereo not shown),-2.85%
2,COc1ccc(/C=C2/NC(=O)N(Cc3cccc(C)c3)C2=O)cc1O,-10%
3,O=C(O)COc1ccc(/C=C2\SC(=O)N(Cc3ccc(F)cc3)C2=O)cc1,-5.26%
4,Cc1ccc(S(=O)(=O)n2ncc3c2CCN(C(=O)OC(C)(C)C)C3)cc1,0.708%
5,CC(NC(=O)Cn1ncc2c3ccccc3n(Cc3ccccc3)c2c1=O)c1ccccc1 (stereo not shown),3.4%
6,CCOC(=O)COc1nc(C)cc(C)c1C#N,4.54%
7,CN1CCC(N2CCCC3CCCCC32)CC1 (stereo not shown),-3.6%
8,CCOC(=O)N1CCC(NCC(C)c2ccccc2)CC1 (stereo not shown),1.57%
9,O=C(c1cccc(F)c1)N1CCN(C2CCC(c3ccccc3)CC2)CC1 (stereo not shown),3.86%
10,Cc1nc2ncnn2c(C)c1CCC(=O)O,-2.83%
11,O=C(COCc1cc(-c2ccco2)on1)N1CCC2(CC1)OCCO2,-6.13%
12,CNC(=O)c1c(N)sc2c1CCCCC2,26.4%
13,O=[N+]([O-])c1ccc(N2CCCC2)c2ncccc12,0.00784%
14,COc1ccc(NS(=O)(=O)c2ccc(NC(=O)Nc3cccc4ccccc34)cc2)cc1,1.89%
15,C=CCNC(=O)c1cc(-c2ccc3c(c2)OCO3)on1,1.82%
16,Cc1cc(Oc2ccccc2F)nc(NCc2ccccc2)n1,4.74%
17,COc1cc(-c2nc(S(=O)(=O)c3ccccc3)c(N3CCOCC3)o2)cc(OC)c1OC,-5.49%
18,Cc1ccc(Sc2ccc(/C=C3\C(=N)N4N=C(N5CCOCC5)SC4=NC3=O)o2)cc1,3.32%
19,Cc1ccc(OCC(=O)NCCCCN2CCOCC2)cc1,-6.67%
20,CCCCN(CCCC)CCCn1cnc2c3cc(OC)ccc3nc-2c1O,4.8%
21,Cc1ccc2oc(C(=O)NC3CCS(=O)(=O)C3)c(C)c2c1 (stereo not shown),-3.18%
22,COc1ccc([C@H]2[C@H](C(=O)O)[C@H](c3ccc(OC)cc3)[C@H]2C(=O)O)cc1,-2.41%
